This is one part of the list. These are enrichments in a pooled selection; single values are uncertain. Scores sum up all selected molecules that hold the word; the word was not tested alone.
Legend:
Assay in all cases: 6-mer SELEX enrichment z-score vs GST control; IMP3 is the RNA-binding protein IGF2BP3; higher = more enriched by binding
[1] = tested on: IMP3 KH1-4; settings: construct: KH1-4 (164-579); SELEX round: R4
Experimental: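 SELEX-seq with GST-tagged IMP3 KH1-4 (Pro164-Lys579) and an N40 RNA pool, round 4. 6-mer z-score of sequence-tag enrichment normalised to the corresponding GST SELEX round; RNA k-mers written as DNA (T for U).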

[2] = target: IMP3 full-length (UniProt O00425); settings: construct: FL IMP3 (1-579); SELEX round: R4
Experimental: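 SELEX-seq with GST-tagged full-length IMP3 and an N40 RNA pool, round 4. Each 6-mer is scored as an enrichment z-score of sequence tags containing it, normalised to the matching GST SELEX round. RNA written as DNA (T = U).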

[3] = tested on: IMP3 KH1-2; settings: construct: KH1-2 (164-376); SELEX round: R4
Experimental: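 SELEX-seq with GST-tagged IMP3 KH1-2 (Pro164-Phe376) and an N40 RNA pool, round 4 (stringent 300/600 mM KCl washes). 6-mer z-score of sequence-tag enrichment normalised to the corresponding GST SELEX round; RNA k-mers written as DNA (T for U).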

[4] = tested on: IMP3 KH3-4; settings: construct: KH3-4 (377-579); SELEX round: R4
Experimental: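 SELEX-seq with GST-tagged IMP3 KH3-4 (Pro377-Lys579) and an N40 RNA pool, round 4. 6-mer z-score of sequence-tag enrichment normalised to the corresponding GST SELEX round; RNA k-mers written as DNA (T for U).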

Chain of IMP3 KH1-4 (chain, as listed by the source): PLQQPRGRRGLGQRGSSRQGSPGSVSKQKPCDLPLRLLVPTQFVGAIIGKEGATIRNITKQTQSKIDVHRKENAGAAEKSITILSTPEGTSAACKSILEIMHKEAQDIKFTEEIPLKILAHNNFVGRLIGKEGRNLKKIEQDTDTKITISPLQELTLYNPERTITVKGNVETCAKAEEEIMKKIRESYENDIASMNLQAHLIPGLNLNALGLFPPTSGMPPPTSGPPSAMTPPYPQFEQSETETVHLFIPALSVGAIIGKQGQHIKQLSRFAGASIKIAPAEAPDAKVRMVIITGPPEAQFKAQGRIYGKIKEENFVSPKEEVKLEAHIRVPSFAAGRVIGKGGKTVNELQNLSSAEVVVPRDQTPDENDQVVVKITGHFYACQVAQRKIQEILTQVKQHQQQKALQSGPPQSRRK
Chain of IMP3 KH3-4 (chain, as listed by the source): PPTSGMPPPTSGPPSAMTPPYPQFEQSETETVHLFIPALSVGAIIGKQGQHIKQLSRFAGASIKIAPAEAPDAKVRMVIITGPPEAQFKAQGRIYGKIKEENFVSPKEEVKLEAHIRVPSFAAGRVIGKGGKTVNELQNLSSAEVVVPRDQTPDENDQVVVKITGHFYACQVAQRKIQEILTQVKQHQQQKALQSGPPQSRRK
Chain of IMP3 KH1-2 (chain, as listed by the source): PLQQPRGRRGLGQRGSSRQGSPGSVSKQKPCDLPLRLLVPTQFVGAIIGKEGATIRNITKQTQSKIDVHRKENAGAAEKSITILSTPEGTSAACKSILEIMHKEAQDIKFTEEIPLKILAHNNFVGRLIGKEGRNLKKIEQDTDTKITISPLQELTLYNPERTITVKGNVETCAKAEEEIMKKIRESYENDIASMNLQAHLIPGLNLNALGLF
Chain of UniProt O00425 (O00425 whole entry): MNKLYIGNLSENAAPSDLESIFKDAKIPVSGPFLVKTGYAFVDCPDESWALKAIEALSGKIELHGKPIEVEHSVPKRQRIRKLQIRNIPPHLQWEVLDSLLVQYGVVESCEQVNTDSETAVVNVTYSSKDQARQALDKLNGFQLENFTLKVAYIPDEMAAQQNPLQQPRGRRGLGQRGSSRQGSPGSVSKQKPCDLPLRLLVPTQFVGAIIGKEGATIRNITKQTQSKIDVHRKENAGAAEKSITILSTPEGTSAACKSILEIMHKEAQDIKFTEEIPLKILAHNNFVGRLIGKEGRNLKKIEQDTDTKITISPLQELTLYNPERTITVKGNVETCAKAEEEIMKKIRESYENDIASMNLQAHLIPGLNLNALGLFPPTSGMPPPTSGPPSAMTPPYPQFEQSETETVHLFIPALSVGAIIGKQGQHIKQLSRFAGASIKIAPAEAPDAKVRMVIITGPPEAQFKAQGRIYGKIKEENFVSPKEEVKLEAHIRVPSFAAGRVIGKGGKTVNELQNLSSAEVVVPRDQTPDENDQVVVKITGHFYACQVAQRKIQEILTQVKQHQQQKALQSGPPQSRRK

| Sequence | 6-mer SELEX enrichment z-score [1] | 6-mer SELEX enrichment z-score [2] | 6-mer SELEX enrichment z-score [3] | 6-mer SELEX enrichment z-score [4] |
| --- | --- | --- | --- | --- |
| AGCTTG | -0.612 | -0.257 | -0.485 | -0.387 |
| CACAAC | 1.03 | 2.1 | 1.56 | -0.139 |
| CCCCCC | 0.971 | -0.358 | 2.15 | -0.037 |
| AAGGAT | 0.848 | -0.14 | 0.531 | 1.25 |
| CAAAGG | -0.376 | 0.015 | -0.384 | -0.231 |
| GCCGGA | -0.043 | 0.272 | -0.012 | -0.064 |
| TGCGGT | 0.101 | 0.274 | 0.123 | 0.212 |
| GTGAGC | -1.24 | -0.394 | -1.06 | -0.955 |
| AATTGC | 0.286 | -0.461 | 0.204 | 0.365 |
| AGCCGC | 0.141 | 0.456 | 0.238 | -0.255 |
| AACACC | -1.24 | -1.06 | -0.928 | -1.98 |
| CAGTTA | 0.48 | 0.27 | 0.385 | 0.321 |
| GTAATG | 0.275 | -0.275 | 0.108 | 0.482 |
| TCGAAA | -1.58 | -1.48 | -1.49 | -1.38 |
| TTTGTC | 0.224 | 0.067 | 0.147 | 0.286 |
| CCCTCA | -0.33 | -0.129 | -0.222 | -0.824 |
| GAAACG | -1.28 | -1.54 | -1.34 | -0.958 |
| GGACCT | -1.22 | -0.861 | -1.08 | -1.19 |
| GAACCA | -0.707 | -0.882 | -0.878 | -1.1 |
| CTACTT | 0.233 | -0.224 | 0.298 | 0.228 |
| GAGAGA | 0.705 | -0.268 | 0.58 | 0.772 |
| GGGTGG | 0.478 | 0.495 | 0.807 | 0.676 |
| CGGCAT | 1.55 | 2.56 | 0.867 | 0.838 |
| GATTTA | 0.994 | -0.023 | 0.871 | 1.63 |
| ACCCAC | -2.24 | -1.73 | -2.08 | -2.96 |
| TAGAAA | 0.071 | -0.97 | 0.05 | 0.957 |
| CAATCA | 0.849 | 3.01 | 0.91 | 0.473 |
| TATGTC | 0.58 | 0.245 | 0.31 | 0.488 |
| GCATTG | 0.104 | 0.462 | 0.043 | 0.002 |
| AGCCCT | -0.653 | -0.578 | -0.592 | -0.92 |

— the supplement of paper PMC6531468
